# Out of some 110,000 compounds screened, about 40 (0.04%) were called active. This list was built around the results that the source calls inconclusive (neither active nor inactive); the mix of calls is not that of the screen. The call rests on the fitted dose curve; in most records, active means well fitted curve in the direction sought with a large enough effect in the signal ratio (not every such curve was filed as active); inconclusive means small, poorly fitted or top-dose-only effect, or a change in a side signal; inactive means flat fitted curve, though single readings scatter; the % refers to the signal ratio. Where the call is inconclusive, the potency comes from a doubtful curve fit.
# Assay: IkB Signaling;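 on IkBa stabilization activation: 0% = basal untreated cells and 100% = reference inhibitor full response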
# Details: ABC-DLBCL IkBa-CBG/CBR dual luciferase ratio (green luciferase fused to IkBa over red control in OCI-Ly3 lymphoma cells), 4 h; IkBa stabilization activation: at 57.1 µM (top of the series), scaled: untreated 0%, proteasome inhibitor 100% unless noted
# Method in brief: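 Curves were fitted separately to fusion (green), unfused (red) and ratio luminescence, then classed by r2, magnitude and activity. Cells: OCI-Ly3, 4 h compound plus doxycycline at 37C; 10 uM MG-132 defined full response.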
# Potency means the concentration at half of the fitted maximal effect.
SMILES,IkBa stabilization activation,Potency
CCc1ccc(CN(Cc2cn[nH]c2-c2ccc(OC)cc2)C(=O)Nc2cc(Cl)ccc2OC)cc1,inconclusive: 2.17% [signal inhibitor],
COC(=O)c1cc(=O)nc2sc3ccccc3n12,inactive,
Cc1ccc(-n2ncc(C(=O)NCc3ccco3)c2C2CCN(C(=O)OC(C)(C)C)CC2)c(C)c1,inconclusive: 2.65% [signal inhibitor],
Cc1ccc(-n2ncc3c(NC4CCCCCC4)ncnc32)cc1Cl,inconclusive: -2.51% [signal inhibitor],
CCCCN(CCCNC(=O)c1cc(Nc2ccc(OC)c(OC)c2)nc2ccccc12)Cc1ccccc1,inconclusive: -1.23% [signal inhibitor],
CCOC(=O)C1=C(C)N=C2SCCC(=O)N2C1c1ccc(OCc2ccccc2)cc1 (stereo not given),inconclusive: 7.86% [signal inhibitor],
Cc1csc(SCc2nnc(-c3ccccc3Br)o2)n1,inactive,
O=C(Nc1ccc(OC(F)(F)F)cc1)c1cc2ccccn2n1,inactive,
CCOC(=O)c1c(NC(=O)c2ccc(S(=O)(=O)N(CC(C)C)CC(C)C)cc2)sc2c1CCN(C(=O)OCC)C2,inconclusive: 1.32% [signal inhibitor],
COC(=O)c1ccc(CN2CCN(Cc3ccc(C(=O)OC)o3)CC2)o1,inactive,
CCC(Sc1nc2ccccc2c(=O)n1CCc1ccc(OC)c(OC)c1)C(=O)N(CC)CC (stereo not given),inconclusive: -1.41% [signal inhibitor],
CCOC(=O)c1cc(NC(=O)CSCCO)ccc1Cl,inconclusive: 4.94% [signal inhibitor],
c1ccc(Nc2nn[nH]n2)cc1,inconclusive: 4.09% [signal inhibitor],
CCOC(=O)C1CCN(C(=O)c2ccc(-n3ccc4ccccc43)s2)CC1,,"inconclusive: 3.98 µM [signal inhibitor, partial curve]"
COc1ccc(Cn2ccn(Cc3cccc(OC)c3)c(=O)c2=O)cc1,inconclusive: 2.02% [signal inhibitor],
Cc1cccc(NC(=O)N2CC(=O)Nc3sc4c(c3C2c2ccccc2)CCCC4)c1C (stereo not given),inconclusive: -0.479% [signal inhibitor],
Cc1ccc(Cl)cc1N1CCN(C(=O)c2ccc3c(c2)N(Cc2ccc(F)cc2)CCS3)CC1,inactive,
CC(C)COC(=O)Nc1ccccc1C(=O)N1CCOCC1,inactive,
CCOc1cc(CNC(=O)c2ccc3c(c2)NC(=O)C2CCCCN32)cc(OCC)c1OCC (stereo not given),inconclusive: -3.68% [signal inhibitor],
CN(N=O)c1ccc(/C=C\c2ccnc3ccccc23)cc1,"inactive: 0.83% [at 11.4 µM, scaled: untreated 0%, proteasome inhibitor 100%]",
COc1cc2nc(NC(=O)c3ccc(S(=O)(=O)N4CCOCC4)cc3)sc2cc1OC,inactive,
Oc1ccc(N2CCN(C(c3cccnc3)c3nnnn3Cc3ccccc3)CC2)cc1 (stereo not given),inactive,
C[C@H](CCC(=O)O)[C@H]1CC[C@H]2[C@@H]3CC[C@@H]4C[C@H](O)CC[C@]4(C)[C@H]3CC[C@]12C,inconclusive: -2.41% [signal inhibitor],
O=C1OC(NC(=O)c2ccccc2)C(n2cc(CO)nn2)=C1Cl (stereo not given),,"inconclusive: 25.1 µM [rising, partial curve]"

SMILES,IkBa stabilization activation,Potency
CC(=O)c1cccc(NC(=O)C2CCN(S(=O)(=O)c3ccc4c(c3)oc(=O)n4C)CC2)c1,inconclusive: 1.34% [signal inhibitor],
O=C(CSCc1ccccc1Cl)N1CCN(c2ccc(Cl)cc2)CC1,inconclusive: 0.311% [signal inhibitor],
COc1ccc(NC(=O)c2ccc3c(c2)OCO3)cc1Cl,inactive,
COc1cc(C2CC(=O)Oc3c2c(=O)n(C)c2ccccc32)ccc1O (stereo not given),inconclusive: 15.5% [signal inhibitor],
CCOC(=O)C1CCN(S(=O)(=O)c2ccc3c(c2)N(C)C(=O)CC(=O)N3C)CC1,inactive,
c1ccc(-c2noc(-c3cccc4ccccc34)n2)cc1,,"inconclusive: 25.1 µM [signal inhibitor, partial curve]"
O=C(COc1ccccc1)Nc1ccc2nc(SCCOc3ccccc3)sc2c1,inconclusive: -0.574% [signal inhibitor],
CCCn1c(=O)c2ccccc2n2c(SCC(=O)c3cc(C)n(CC4CCCO4)c3C)nnc12 (stereo not given),inactive,
Nc1ccc(-c2nc3ccc(-c4nc5ccccc5o4)cc3[nH]2)cc1,inactive,
CCC(C)c1ccc(NC(=O)c2cccnc2)cc1 (stereo not given),inactive,
CCc1ccccc1NC(=O)c1cnc(N2CCCCC2)c2ccccc12,inconclusive: 1.6% [signal inhibitor],
COc1cc(C(=O)NCC(c2cccs2)S(=O)(=O)c2cccs2)cc(OC)c1OC (stereo not given),inconclusive: 1.53% [signal inhibitor],
COc1cccc(Nc2nc(-c3sc(N)nc3C)cs2)c1,inactive,
COc1ccc(-c2c3c(=O)n(C)c(=O)n(C)c3c3n2-c2ccccc2NC3c2ccco2)cc1 (stereo not given),inconclusive: 1.12% [signal inhibitor],
CCN1C(=O)c2ccccc2S(=O)c2ccc(C(=O)N3CCN(c4cc(Cl)ccc4C)CC3)cc21 (stereo not given),inconclusive: 4.56% [signal inhibitor],
Cc1ccccc1CN1CCC(CNC(=O)c2c(C)oc3ncnc(N4CCCCC4)c23)CC1,inactive,
CCOc1ccc(CCNC(=O)C2=C(C)C(=O)OC23CCCCC3)cc1,inconclusive: 0.481% [signal inhibitor],
O=C(CCn1c(=O)c2cccn2c2cccnc21)NCc1ccc(F)cc1,inactive,
CN(Cc1ccccc1)C(=O)c1ccc2c(c1)N(Cc1ccccc1Cl)C(=O)c1ccccc1S2,inconclusive: -0.32% [signal inhibitor],
COc1nnc(-c2ccc(N3CCCCC3)c(N)c2)c2ccccc12,inconclusive: 1.72% [signal inhibitor],
COC(=O)c1c(-c2cccs2)csc1NC(=O)COc1ccc(C(C)(C)C)cc1,inactive,
CCOc1ccccc1C1C(C(=O)N2CCCCC2)=C(C)Nc2nc3ccccc3n21 (stereo not given),,inconclusive: 20 µM [signal inhibitor]
CC(=O)c1cccc(-n2nnnc2SCC(=O)Nc2cccc(NC(=O)c3ccco3)c2)c1,inconclusive: 9.12% [signal inhibitor],
CCc1ccc(NC(=O)c2sc(-n3nc(C)c(Cc4ccc(OC)cc4)c3C)nc2C)cc1,inactive,

SMILES,IkBa stabilization activation,Potency
O=C(CSc1nc2ccccc2c(=O)n1Cc1ccco1)c1ccccc1,inconclusive: 2.32% [signal inhibitor],
O=C(NCC1CCN(Cc2cccc(Cl)c2)CC1)Nc1cc(Cl)ccc1Cl,inconclusive: 4.48% [signal inhibitor],
COc1ccc(N(C)C(=O)CCn2cnc3onc(-c4ccc(F)cc4)c3c2=O)c(OC)c1,inconclusive: -0.543% [signal inhibitor],
CCCCCS(=O)(=O)c1oc(-c2cccs2)nc1S(=O)(=O)c1ccc(C)cc1,,inconclusive: 6.31 µM [signal inhibitor]
Cc1cccnc1NCc1ccc(O)c2ncccc12,,"inconclusive: 10 µM [rising, partial curve]"
CCCCN(CCCC)C(=O)c1cc2c(=O)n3cccc(C)c3nc2s1,inconclusive: 9.49% [signal inhibitor],
COc1ccc(S(=O)(=O)Nc2ccc(C(F)(F)F)cc2)cc1OC,inconclusive: 3.75% [signal inhibitor],
COc1ccc(C2CC(=O)N(CC(=O)Nc3cc(C)ccc3C)c3ccccc3S2)cc1 (stereo not given),inconclusive: 4.03% [signal inhibitor],
COc1ccc2[nH]cc(CCNc3cc(-c4cccnc4)ncn3)c2c1,"inactive: 0.0995% [at 11.4 µM, scaled: untreated 0%, proteasome inhibitor 100%]",
Brc1ccc2ncnc(NCc3ccco3)c2c1,,"inconclusive: 3.98 µM [signal inhibitor, full curve]"
Cc1cccc(OCC(=O)N(Cc2cccs2)c2ccc(Cl)cc2)c1C,inconclusive: -1.49% [signal inhibitor],
O=C(Cn1c(C(=O)NCc2ccco2)cc2sccc21)c1ccccc1,inconclusive: 0.608% [signal inhibitor],
CN1C(=O)c2ccccc2Sc2ccc(NC(=O)c3ccccc3F)cc21,inconclusive: 1.87% [signal inhibitor],
CCOC(=O)c1c(NC(=O)c2cccs2)sc(C(=O)N2CCOCC2)c1C,inactive,
CCOC(=O)c1cccc(NC(=O)[C@@H](c2ccccc2)N2Cc3ccccc3C2=O)c1,inconclusive: -0.146% [signal inhibitor],
CCN1C(=O)c2ccccc2Sc2ccc(C(=O)NCCCN(CC(C)C)CC(C)C)cc21,inconclusive: -1.35% [signal inhibitor],
Cc1ccc(C)c(N(C(=O)Cn2nnc(-c3cccs3)n2)C(C(=O)NC2CC2)c2ccc(C)o2)c1 (stereo not given),inactive,
Cc1nc2c(C(=O)NCCC3=CCCCC3)c[nH]n2c(=O)c1Cl,inactive,
O=S(=O)(Nc1nc2ccccc2nc1Nc1ccc2c(c1)OCCO2)c1cccs1,inconclusive: 9.99% [signal inhibitor],
COc1cccc(CNC(=O)c2cc3c(s2)-c2ccccc2OC3)c1,inconclusive: 7.49% [signal inhibitor],
COc1ccc(-n2c(=O)c3c4c(sc3n(Cc3ccc(F)cc3)c2=O)CCCC4)c(OC)c1,inconclusive: -0.151% [signal inhibitor],
COc1ccccc1NC(=O)C1=C(C)Nc2ncnn2C1c1ccccc1C(=O)O (stereo not given),,inconclusive: 39.8 µM [signal inhibitor]

# — PubChem BioAssay AID445 (National Center for Advancing Translational Sciences (NCATS), 2006)
